A lower IC50 marks a more sensitive line; a fit beyond the top or the lowest dose is shown as a bound at that dose. AUC, from the same fit, is the share of area under the viability curve across the 256-fold dose range; values near 1 show little effect. Any top dose called inferred was calculated from the reported fits. Drugs with an entry number were screened twice under separate entries, and the two screens often disagree.

Here are results for 67 cell lines from the supplement of paper PMC4967469.

Compound in one assay: NC(=O)[C@@H](CCC(F)(F)F)N(Cc1ccc(-c2ncon2)cc1F)S(=O)(=O)c1ccc(Cl)cc1 [BMS-708163]
In words: Viability of human cancer cell lines after 72 h of drug (GDSC screen). The following applies: screen: GDSC drug entry 205; top dose inferred. As to the method: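 Human cancer cell lines in 384-well plates, medium with 10% serum, drug for 72 h over a 256-fold dose range (nine 2-fold or five 4-fold steps up to the top dose). Adherent lines were fixed and stained with the nucleic acid dye Syto60, suspension lines read with resazurin; signal relative to control wells, capped at 0 and 100%. One two-parameter sigmoid per drug and line, fitted in a mixed model over all curves with the slope shared within a line.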
As a reminder, the IC50 is the concentration needed to halve the response being measured. As for “SW1463 (large intestine, adherent, top dose 10.24 µM)”, the AUC came out at 0.968 and the IC50 is over 10.2 µM.
On the same counts, the results for “SW1573 (lung adenocarcinoma, adherent, top dose 10.24 µM)” are 0.981 and over 10.2 µM.
As to “SW1710 (bladder, adherent, top dose 10.24 µM)”, the AUC is 0.985 and the IC50 is over 10.2 µM.
For “SW1783 (glioma, adherent, top dose 10.24 µM)” the same measures were 0.99 and over 10.2 µM.
For “SW1990 (pancreas, adherent, top dose 10.24 µM)” the same measures were 0.982 and over 10.2 µM.
For “Saos-2 (osteosarcoma, adherent, top dose 10.24 µM)”, the AUC was determined as 0.981 and the half-maximal inhibitory concentration (IC50) is over 10.2 µM.
For “SiHa (cervix, adherent, top dose 10.24 µM)” the same measures were 0.986 and over 10.2 µM.
On the same counts, the results for “T47D (breast, adherent, top dose 10.24 µM)” are 0.97 and over 10.2 µM.
Take “T84 (large intestine, adherent, top dose 10.24 µM)”: the AUC came to 0.977 and the IC50 is over 10.2 µM.
As for “T98G (glioma, adherent, top dose 10.24 µM)”, the AUC came out at 0.99 and the IC50 was over 10.2 µM.
Turning to “T-24 (bladder, adherent, top dose 10.24 µM)”, the AUC was determined as 0.988 and the half-inhibitory concentration (IC50) is over 10.2 µM.
For “T-T (oesophagus, adherent, top dose 10.24 µM)” the same measures were 0.987 and over 10.2 µM.
On the same counts, the results for “TALL-1 (T-cell lymphoblastic leukaemia, suspension, top dose 10.24 µM)” are 0.99 and over 10.2 µM.
For the cell line “TC-71 (Ewing sarcoma, adherent, top dose 10.24 µM)”, the AUC stood at 0.992 and the IC50 was over 10.2 µM.
For “TCCSUP (bladder, adherent, top dose 10.24 µM)” the same measures were 0.985 and over 10.2 µM.
For “TE-1 (oesophagus, adherent, top dose 10.24 µM)” the same measures were 0.977 and over 10.2 µM.
Consider “TE-4 (oesophagus, adherent, top dose 10.24 µM)”, for which the AUC stood at 0.987 and the IC50 was over 10.2 µM.
For “TE-5 (oesophagus, adherent, top dose 10.24 µM)” the same measures were 0.984 and over 10.2 µM.
For “TE-6 (oesophagus, adherent, top dose 10.24 µM)” the same measures were 0.974 and over 10.2 µM.
On the same counts, the results for “TE-8 (oesophagus, adherent, top dose 10.24 µM)” are 0.97 and over 10.2 µM.
For “TE-9 (oesophagus, adherent, top dose 10.24 µM)”, the AUC worked out at 0.987 and the IC50 is over 10.2 µM.
Consider “TE-10 (oesophagus, adherent, top dose 10.24 µM)”, for which the AUC turned out to be 0.982 and the IC50 was over 10.2 µM.
On the same counts, the results for “TE-11 (oesophagus, adherent, top dose 10.24 µM)” are 0.99 and over 10.2 µM.
For “TE-12 (oesophagus, suspension, top dose 10.24 µM)” the same measures were 0.961 and over 10.2 µM.
For “TE-15 (oesophagus, suspension, top dose 10.24 µM)” the same measures were 0.96 and over 10.2 µM.
Regarding “TE-441-T (rhabdomyosarcoma, adherent, top dose 10.24 µM)”, the AUC was found to be 0.985 and the IC50 is over 10.2 µM.
As to “TGBC1TKB (biliary tract, adherent, top dose 10.24 µM)”, the AUC came out at 0.989 and the IC50 was over 10.2 µM.
In the case of “TGBC11TKB (stomach, adherent, top dose 10.24 µM)”, the AUC was determined as 0.986 and the IC50 is over 10.2 µM.
For “TGBC24TKB (biliary tract, adherent, top dose 10.24 µM)” the same measures were 0.989 and over 10.2 µM.
Consider “TGW (neuroblastoma, adherent, top dose 10.24 µM)”, for which the AUC came to 0.992 and the IC50 was over 10.2 µM.
Regarding “THP-1 (acute myeloid leukaemia, suspension, top dose 10.24 µM)”, the AUC stood at 0.981 and the IC50 is over 10.2 µM.
On the same counts, the results for “TK10 (kidney, adherent, top dose 10.24 µM)” are 0.981 and over 10.2 µM.
For the cell line “TK (B-cell lymphoma, suspension, top dose 10.24 µM)”, the AUC came out at 0.982 and the IC50 was over 10.2 µM.
For “TMK-1 (stomach, adherent, top dose 10.24 µM)” the same measures were 0.986 and over 10.2 µM.
On the same counts, the results for “TOV-21G (ovary, adherent, top dose 10.24 µM)” are 0.932 and over 10.2 µM.
For “TOV-112D (ovary, adherent, top dose 10.24 µM)” the same measures were 0.985 and over 10.2 µM.
In the case of “TT2609-C02 (thyroid, adherent, top dose 10.24 µM)”, the AUC turned out to be 0.979 and the 50% inhibitory concentration (IC50) is over 10.2 µM.
Take “TT (thyroid, adherent, top dose 10.24 µM)”: the AUC is 0.983 and the IC50 was over 10.2 µM.
On the same counts, the results for “TUR (B-cell lymphoma, suspension, top dose 10.24 µM)” are 0.988 and over 10.2 µM.
For “TYK-nu (ovary, adherent, top dose 10.24 µM)”, the AUC worked out at 0.983 and the IC50 is over 10.2 µM.
On the same counts, the results for “U031 (kidney, adherent, top dose 10.24 µM)” are 0.976 and over 10.2 µM.
As to “U251 (glioma, adherent, top dose 10.24 µM)”, the AUC was 0.987 and the IC50 is over 10.2 µM.
“U-2-OS (osteosarcoma, adherent, top dose 10.24 µM)”: the AUC turned out to be 0.984 and the IC50 is over 10.2 µM.
For “U-87-MG (glioma, adherent, top dose 10.24 µM)” the same measures were 0.982 and over 10.2 µM.
For “U-118-MG (glioma, adherent, top dose 10.24 µM)” the same measures were 0.975 and over 10.2 µM.
For “U-698-M (B-cell leukaemia, suspension, top dose 10.24 µM)” the same measures were 0.987 and over 10.2 µM.
As for “UACC-62 (melanoma, adherent, top dose 10.24 µM)”, the AUC was 0.986 and the IC50 was over 10.2 µM.
For “UACC-257 (melanoma, adherent, top dose 10.24 µM)” the same measures were 0.979 and over 10.2 µM.
On the same counts, the results for “UACC-812 (breast, adherent, top dose 10.24 µM)” are 0.99 and over 10.2 µM.
On the same counts, the results for “UACC-893 (breast, adherent, top dose 10.24 µM)” are 0.982 and over 10.2 µM.
Consider “UM-UC-3 (bladder, adherent, top dose 10.24 µM)”, for which the AUC was 0.985 and the IC50 is over 10.2 µM.
As to “UMC-11 (lung carcinoid, adherent, top dose 10.24 µM)”, the AUC came to 0.991 and the concentration for half-maximal inhibition (IC50) is over 10.2 µM.
On the same counts, the results for “UWB1.289 (ovary, adherent, top dose 10.24 µM)” are 0.98 and over 10.2 µM.
For “VA-ES-BJ (soft tissue, adherent, top dose 10.24 µM)”, the AUC was 0.986 and the IC50 was over 10.2 µM.
Consider “VAL (B-cell lymphoma, suspension, top dose 10.24 µM)”, for which the AUC came out at 0.982 and the IC50 was over 10.2 µM.
On the same counts, the results for “VCaP (prostate, adherent, top dose 10.24 µM)” are 0.965 and over 10.2 µM.
As for “VM-CUB-1 (bladder, adherent, top dose 10.24 µM)”, the AUC turned out to be 0.988 and the IC50 was over 10.2 µM.
On the same counts, the results for “VMRC-MELG (melanoma, adherent, top dose 10.24 µM)” are 0.988 and over 10.2 µM.
As for “VMRC-RCW (kidney, adherent, top dose 10.24 µM)”, the AUC worked out at 0.989 and the IC50 is over 10.2 µM.
On to “VMRC-RCZ (kidney, adherent, top dose 10.24 µM)”, for which the AUC turned out to be 0.98 and the IC50 was over 10.2 µM.
In the case of “WIL2-NS (lymphoid neoplasm, suspension, top dose 10.24 µM)”, the AUC is 0.976 and the IC50 was over 10.2 µM.
For “WM35 (melanoma, adherent, top dose 10.24 µM)” the same measures were 0.973 and over 10.2 µM.
As to “WM278 (melanoma, adherent, top dose 10.24 µM)”, the AUC amounted to 0.982 and the IC50 was over 10.2 µM.
For “WM793B (melanoma, adherent, top dose 10.24 µM)” the same measures were 0.959 and over 10.2 µM.

Still in this assay, the particulars now being: top dose 5 µM; screen: GDSC drug entry 1072; top dose inferred.
As for TE-4 (oesophagus, adherent), the AUC came to 0.987 and the IC50 is over 5 µM.
For UWB1.289 (ovary, adherent), the AUC was 0.974 and the IC50 is over 5 µM.
On the same counts, the results for “VMRC-LCD (lung adenocarcinoma, adherent)” are 0.987 and over 5 µM.
